Kd data for 1 molecule are collected here from patent publication US20230059690A1 (published 2023).

One assay concerns the target human PSMA (human, UniProt Q04609). Kind of assay: SPR.
The target of another assay is T1, cynomolgus monkey PSMA (cynomolgus monkey, UniProt A0A2K5VNZ0 44-750).
T1 chain: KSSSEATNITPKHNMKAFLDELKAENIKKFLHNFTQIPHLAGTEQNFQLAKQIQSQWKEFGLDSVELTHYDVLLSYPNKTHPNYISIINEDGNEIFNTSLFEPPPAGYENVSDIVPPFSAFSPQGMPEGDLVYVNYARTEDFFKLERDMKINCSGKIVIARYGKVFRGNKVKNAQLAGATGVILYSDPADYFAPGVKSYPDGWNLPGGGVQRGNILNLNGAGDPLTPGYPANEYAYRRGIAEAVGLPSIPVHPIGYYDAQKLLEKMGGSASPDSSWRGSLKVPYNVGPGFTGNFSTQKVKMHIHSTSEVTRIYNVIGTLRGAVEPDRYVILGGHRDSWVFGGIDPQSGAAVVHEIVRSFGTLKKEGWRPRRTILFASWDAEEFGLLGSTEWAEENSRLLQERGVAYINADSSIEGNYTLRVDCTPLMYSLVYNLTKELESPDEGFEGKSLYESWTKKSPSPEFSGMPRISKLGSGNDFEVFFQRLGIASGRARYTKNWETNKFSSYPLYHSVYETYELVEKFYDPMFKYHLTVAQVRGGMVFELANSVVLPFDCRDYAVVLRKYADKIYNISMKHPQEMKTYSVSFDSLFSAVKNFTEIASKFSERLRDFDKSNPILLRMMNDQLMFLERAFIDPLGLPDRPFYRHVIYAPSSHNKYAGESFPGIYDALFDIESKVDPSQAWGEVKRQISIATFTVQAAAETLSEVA
Kind of assay: SPR.

human PSMA, sequence (Q04609 44-750): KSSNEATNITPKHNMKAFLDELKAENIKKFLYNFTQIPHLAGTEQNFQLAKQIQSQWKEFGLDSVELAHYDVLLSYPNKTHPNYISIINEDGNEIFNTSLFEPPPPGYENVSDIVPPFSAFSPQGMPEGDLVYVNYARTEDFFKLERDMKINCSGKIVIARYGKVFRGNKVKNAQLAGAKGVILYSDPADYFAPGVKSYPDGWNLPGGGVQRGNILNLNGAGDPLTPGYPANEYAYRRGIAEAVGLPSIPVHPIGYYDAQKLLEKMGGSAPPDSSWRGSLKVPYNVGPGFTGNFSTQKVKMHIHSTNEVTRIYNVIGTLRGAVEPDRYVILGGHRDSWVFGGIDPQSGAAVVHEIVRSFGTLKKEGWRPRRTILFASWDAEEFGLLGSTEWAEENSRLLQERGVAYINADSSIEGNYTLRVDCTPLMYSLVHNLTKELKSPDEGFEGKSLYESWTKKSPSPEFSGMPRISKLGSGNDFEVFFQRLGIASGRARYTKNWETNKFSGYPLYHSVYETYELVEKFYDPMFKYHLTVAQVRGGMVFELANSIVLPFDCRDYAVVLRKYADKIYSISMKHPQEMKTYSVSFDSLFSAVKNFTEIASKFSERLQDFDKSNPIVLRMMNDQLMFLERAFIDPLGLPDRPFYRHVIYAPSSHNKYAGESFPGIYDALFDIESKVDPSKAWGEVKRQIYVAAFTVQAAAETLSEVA

B1: cHv75-2a11.G1(L328C)k-AGL-01332-93 (other)
heavy: QVQLVESGGGVVQPGRSLRLSCAASGFTFSSYDMHWVRQAPGKGLEWVAVIWYDGSNKYYADSLKGRFTISRDNSKNTLYLQMNSLRAEDTAVYYCARVIAARTFYYYGMDVWGQGTTVTVSSASTKGPSVFPLAPSSKSTSGGTAALGCLVKDYFPEPVTVSWNSGALTSGVHTFPAVLQSSGLYSLSSVVTVPSSSLGTQTYICNVNHKPSNTKVDKKV[human IgG1 Fc with L328C (EU numbers) omitted]
light: [about 120 residues omitted][about 100 residues omitted]
modifications: AGL-01332-93 drug-linker conjugated (DAR 1.93). The examples do not state the site; the name points to the engineered cysteine L328C.
With B1, the equilibrium dissociation constant (Kd) was 68 nM with human PSMA and 47 nM with cynomolgus monkey PSMA.
